# PubChem BioAssay AID1345083 (National Center for Advancing Translational Sciences (NCATS), 2018)
# Out of some 94,000 compounds screened, about 6,200 (6.6%) were called active. Inconclusive means that the source gave no clear call. Such entries were picked first, then a sample of the others. Calls follow the shape of the dose curve; as a rule, active = well fitted inhibition curve with a large enough effect; inconclusive = small, poorly fitted or top-dose-only effect; inactive = flat fitted curve, though single readings scatter. Where the call is inconclusive, the potency comes from a doubtful curve fit.
# Test: Cytotoxic Profiling in HEK 293 Cell Line of Diverse Libraries Using Quantitative High-Throughput Screening; also: nearly all actives have a fitted effect of over 60% in size
# Settings: HEK 293 viability, ATP luminescence (CellTiter-Glo), 48-72 h; series mostly up to 115 µM
# In short: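 HEK 293 cells at 250 cells/well were exposed to compounds by pintool transfer for 48 or 72 hr at 37 degree Celsius, 5% CO2. Viability was read as ATP-coupled luminescence with CellTiter-Glo after 10 min at room temperature.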
# Potency is read from the fitted curve at half-maximal effect; tags tell the direction and shape of the fitted curve.
row,SMILES,Potency
1,CCN(Cc1ccncc1)C1CN(C(=O)c2nccc3ccccc23)C1,"inconclusive: 70.8 µM [inhibitor, partial curve, poor fit]"
2,CCN(C(=O)c1cnc(-c2cccs2)[nH]c1=O)C1CCS(=O)(=O)C1 (stereo unspecified),"inconclusive: 79.4 µM [inhibitor, single point]"
3,O=C(NCc1ccccc1F)c1cn2cc(-c3cccc(C(F)(F)F)c3)sc2n1,"inconclusive: 50.1 µM [inhibitor, partial curve, poor fit]"
4,CCN1c2cc(C(=O)NCc3cccc(C(F)(F)F)c3)ccc2C(=O)N2CCCCCC21 (stereo unspecified),active: 17.8 µM
5,COc1ccccc1C(=O)N1CCc2cn(C)c3cccc(c23)C1,"inconclusive: 79.4 µM [inhibitor, single point]"
6,CCOCc1nc(C2CCCN(C(=O)C(C)C)C2)no1 (stereo unspecified),"inconclusive: 89.1 µM [inhibitor, single point]"
7,O=C(CCC1CCN(S(=O)(=O)c2ccccc2)CC1)N1CCc2ccccc2C1,"inconclusive: 89.1 µM [inhibitor, single point]"
8,COc1ccc(C(=O)NC2CCN(c3ccc4nnc(-c5ccccc5)n4n3)CC2)cc1,active: 79.4 µM
9,O=S(=O)(Cc1ccccc1F)N1CCC(c2noc(-c3ccncc3)n2)C1 (stereo unspecified),"inconclusive: 50.1 µM [inhibitor, partial curve, poor fit]"
10,Cn1c(C(=O)N2CCc3c(n(CCOc4ccccc4)n(-c4ccccc4)c3=O)C2)cc2ccccc21,"inconclusive: 50.1 µM [inhibitor, partial curve, poor fit]"
11,Cc1cc2ncc(C(=O)NC(C)c3ccc(F)cc3)cn2n1 (stereo unspecified),"inconclusive: 89.1 µM [inhibitor, partial curve, poor fit]"
12,CNC(=O)c1cc(C2CC2)nc2onc(C3CCCN(C(=O)c4ccccc4OC)C3)c12 (stereo unspecified),"inconclusive: 56.2 µM [inhibitor, partial curve, poor fit]"
13,Cc1noc(C)c1-c1cc(-c2ccc(CN(C)C)cc2)cn2cncc12,"inconclusive: 56.2 µM [inhibitor, full curve, poor fit]"
14,COc1ccc(-c2nc3c(c(=O)[nH]2)CCN(C(=O)Cc2c[nH]c4ccccc24)C3)cc1,"inconclusive: 89.1 µM [inhibitor, single point]"
15,Cc1noc(C)c1-c1cc(-c2cccc(O)c2)cn2cncc12,"inconclusive: 50.1 µM [inhibitor, full curve, poor fit]"
16,O=C(CC1CCOCC1)Nc1ccc(N2CCOCC2)cc1,inactive
17,CCN1CCN(C(=O)c2ccc3nnc(-c4cc(C(F)(F)F)cc(C(F)(F)F)c4)n3c2)CC1,inactive
18,COc1cccc(CN2C(=O)OC3(CCN(Cc4ccccn4)CC3)C2(C)c2cccnc2)c1 (stereo unspecified),inactive
19,Cc1cc(C)n(Cc2ccc(C(=O)NCC3Cn4cccc4C(=O)N3C)o2)n1 (stereo unspecified),inactive
20,O=C1NC2(CCN(Cc3ccsc3)CC2)Oc2ccccc21,"inconclusive: 100 µM [inhibitor, partial curve]"
21,Cc1cc(Cn2cc3c4c(cccc42)[C@H](CC(C)C)N[C@H](C(=O)NC2CCC2)C3)no1,active: 79.4 µM

row,SMILES,Potency
1,COc1ccc(C(=O)N2C[C@@H](Oc3cccnc3)C[C@H]2C(=O)NC2CC2)c(OC)n1,inactive
2,CN1CC(=O)N(C2CCCNCC2)Cc2c(NCCc3ccccn3)ncnc21 (stereo unspecified),inactive
3,O=[S+]1([O-])N(Cc2ccccc2)C[C@H](O)[C@]12CCN(Cc1ccc(OC(F)F)cc1)C2,"inconclusive: 39.8 µM [inhibitor, partial curve, poor fit]"
4,Cn1nc(C2CCCC2)cc1NC(=O)Cc1ccccc1,"inconclusive: 126 µM [inhibitor, single point]"
5,COc1ccc(S(=O)(=O)NC[C@@H]2C=C(C)[C@H](CC(=O)N3CCN(c4ccccn4)CC3)C[C@H]2C(C)C)cc1,"inconclusive: 31.6 µM [inhibitor, full curve, poor fit]"
6,CN1CCN(C(=O)NCc2cccc(F)c2)CC12CCNC(=O)CC2 (stereo unspecified),inactive
7,CCCN(CC1CCOC1)S(=O)(=O)c1ccc2c(c1)CCC2 (stereo unspecified),"inconclusive: 35.5 µM [inhibitor, partial curve]"
8,O=C(NCc1ccccc1)C1CCC(=O)N1C1CCN(C(=O)c2ccc(Cl)cc2)CC1 (stereo unspecified),"inconclusive: 100 µM [inhibitor, single point]"
9,Cc1ccc(S(=O)(=O)N2CCCC(Cn3c(C)nc4cccnc43)C2)cc1Cl (stereo unspecified),"inconclusive: 50.1 µM [inhibitor, partial curve, poor fit]"
10,COc1cccc(-c2ccc(C(=O)N3CCC(NC(=O)Nc4ccc(Cl)cc4)CC3)cc2)c1,active: 10 µM
11,COc1ccccc1-c1nc(C(=O)NCc2ccc(F)cc2)n2ccncc12,"inconclusive: 56.2 µM [inhibitor, partial curve, poor fit]"
12,O=C(c1cc(-c2ccccc2)c2nncn2n1)N1CCOCC1,inactive
13,O=C1CO[C@H]2CCN(Cc3ccc(O)cc3)CC[C@@H]2N1c1ccccc1,"inconclusive: 126 µM [inhibitor, single point]"
14,CCc1nc(-c2c3n(c(=O)n(Cc4cccc(C)c4)c2=O)CCCC3)no1,inactive
15,O=C(CCC1CCN(C(=O)c2ccoc2)CC1)N1CCC(Cc2ccccc2)CC1,"inconclusive: 44.7 µM [inhibitor, partial curve]"
16,Cc1ccccc1S(=O)(=O)N1CCN(C2CCN(CCc3ccccc3)C2=O)CC1 (stereo unspecified),"inconclusive: 44.7 µM [inhibitor, partial curve, poor fit]"
17,Cc1ccc(-c2cc(N3CCCN(C(=O)c4ccc(N(C)C)cc4)CC3)n[nH]2)cc1C,"inconclusive: 50.1 µM [inhibitor, partial curve, poor fit]"
18,Cc1nnc(-c2cc(-c3ccccc3)ccn2)n1CCc1ccccc1,active: 89.1 µM
19,COCC(=O)N[C@@H]1CN(Cc2c(F)cccc2Cl)C[C@H]1CO,inactive
20,CC(C)(C)CC(=O)N[C@H]1C[C@H]2C(=O)Nc3cc(Cl)ccc3C(=O)N2C1,"inconclusive: 126 µM [inhibitor, single point]"
